Test results: article PMC12135187, “A role for pH dynamics regulating transcription factor DNA-binding selectivity”
This is one part of the list.

biological target: T1, FOXC2 DBD WT (UniProt Q99958 72-172); assay: SELEX-seq (GST pull-down, four rounds, 16-nt random library); pH 7.0; 20 mM HEPES, 140 mM KCl, 0.05 mM TCEP-HCl, pH 7.0, room temperature, 30 min; 2.5 uM GST-FOXC2 DBD, 0.25 uM DNA library; high values mean tight binding; settings: protein: recombinant; tags: N-terminal GST (pGEX-6P-2); dsDNA, one strand shown
T1 sequence: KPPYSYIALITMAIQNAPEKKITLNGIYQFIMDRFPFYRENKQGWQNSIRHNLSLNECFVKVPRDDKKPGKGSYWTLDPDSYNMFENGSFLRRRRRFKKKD
Method in brief: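 GST-tagged FOXC2 DNA-binding domain (E. coli-expressed, glutathione-purified) was incubated with a DNA library carrying a 16 bp randomized region, at 0.25 μM DNA and 2.5 μM protein, for 30 min at RT in 20 mM HEPES, 140 mM KCl, 0.05 mM TCEP–HCl, pH 7. Complexes were captured on glutathione Sepharose beads, washed, heat-eluted and PCR-amplified over four rounds. Initial and selected libraries were Illumina MiniSeq sequenced. Relative enrichment came from the Bioconductor SELEX R package.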

| Sequence | binding signal [relative enrichment] |
| --- | --- |
| ATAACC | 0.406 |
| TATAAA | 0.283 |
| TTCACT | 0.426 |
| ATTCCG | 0.485 |
| AAGTCA | 0.436 |
| CCTGTG | 0.491 |
| TCTTGA | 0.438 |
| ACTTGA | 0.341 |
| AATGTG | 0.373 |
| GATCTA | 0.537 |
| AGAAAT | 0.419 |
| CGTCTA | 0.644 |
| TTCACA | 0.27 |
| AAGCTG | 0.325 |
| GTATCA | 0.372 |
| GTATAA | 0.285 |
| TCATAC | 0.381 |
| AAGCCA | 0.413 |
| CACCGT | 0.539 |
| AATTCG | 0.391 |
| AAACTT | 0.277 |
| CAACCA | 0.261 |
| CCAAAA | 0.344 |
| ACAGCT | 0.309 |
| ATAAAC | 1 |

| Sequence | binding signal [relative enrichment] |
| --- | --- |
| ATCCTG | 0.428 |
| CCTATA | 0.569 |
| TACCCT | 0.504 |
| CAATAA | 0.513 |
| ATCGCT | 0.518 |
| CTTTTC | 0.422 |
| CAAATA | 0.707 |
| ACTAGT | 0.444 |
| TACGTA | 0.539 |
| TACTAC | 0.438 |
| AATCGT | 0.337 |
| AAGTAT | 0.367 |
| CAGCAT | 0.356 |
| AAAAAC | 0.276 |
| GGACAA | 0.265 |
| AATAAG | 0.686 |
| AAAATC | 0.32 |
| GCTCAA | 0.305 |
| CATCAA | 0.4 |
| TCTCTT | 0.407 |
| CGCAAT | 0.294 |
| CATACG | 0.448 |
| CTAATC | 0.454 |
| AAAATG | 0.205 |
| AGGCAA | 0.341 |

| Sequence | binding signal [relative enrichment] |
| --- | --- |
| ACATCG | 0.521 |
| TTACCG | 0.42 |
| ACACGG | 0.442 |
| AATTCT | 0.354 |
| CATCTA | 0.42 |
| CAACGC | 0.322 |
| AGGTTG | 0.313 |
| AATACG | 0.61 |
| ATCTAC | 0.461 |
| CAAAGC | 0.325 |
| AGCTAA | 0.285 |
| ACTATG | 0.393 |
| ATAGCC | 0.391 |
| ATCGAT | 0.389 |
| CCTAGT | 0.64 |
| AATTAT | 0.268 |
| ATCCTT | 0.401 |
| AGCTTA | 0.423 |
| CGCATT | 0.382 |
| ATTCGC | 0.47 |
| AATCAC | 0.366 |
| AACGCT | 0.345 |
| ACGTTA | 0.263 |
| CAGTAA | 0.415 |
| AGCAAT | 0.405 |

| Sequence | binding signal [relative enrichment] |
| --- | --- |
| CGCTTT | 0.276 |
| CATCTC | 0.642 |
| ATGCTA | 0.343 |
| GCGTAA | 0.422 |
| CACAAG | 0.295 |
| ATATGA | 0.356 |
| TTGCAA | 0.353 |
| GCTTAC | 0.467 |
| CACCAT | 0.56 |
| GTTAAC | 0.267 |
| CGGTTA | 0.262 |
| ACTTAA | 0.302 |
| CATTTA | 0.393 |
| ATCAAA | 0.322 |
| AAGAGT | 0.371 |
| AGTATA | 0.29 |
| ATTGAA | 0.446 |
| ATACAG | 0.285 |
| AATGCA | 0.391 |
| AACGAA | 0.281 |
| AGACTA | 0.502 |
| ACCCAA | 0.434 |
| CTACGT | 0.554 |
| AAGCTA | 0.297 |
| ACAGGT | 0.428 |

| Sequence | binding signal [relative enrichment] |
| --- | --- |
| CTGCAT | 0.524 |
| AGTACA | 0.385 |
| TACTGA | 0.461 |
| AGATTA | 0.329 |
| AAAGAC | 0.309 |
| GCTTAA | 0.347 |
| TACATA | 0.312 |
| ATTCCA | 0.428 |
| CAGATA | 0.389 |
| TACGCA | 0.486 |
| CTCTCT | 0.618 |
| CCTCTA | 0.483 |
| ATCGCA | 0.464 |
| AAACGC | 0.351 |
| GTTAAA | 0.356 |
| GCTACA | 0.348 |
| AAATCA | 0.34 |
| AGCAAG | 0.404 |
| TAAGAA | 0.346 |
| AAAAAT | 0.241 |
| GTTCTA | 0.454 |
| AAAAAG | 0.29 |
| ACTTAT | 0.389 |
| AACATG | 0.351 |
| GACTAA | 0.469 |

| Sequence | binding signal [relative enrichment] |
| --- | --- |
| GAACTA | 0.419 |
| CATAAA | 0.596 |
| TACCTC | 0.625 |
| CAGTCT | 0.627 |
| ACCGTA | 0.478 |
| TTCCGT | 0.616 |
| AAAGAT | 0.356 |
| AGTACT | 0.668 |
| CTTTGA | 0.338 |
| CTCATG | 0.568 |
| AAACCC | 0.354 |
| AACCGT | 0.374 |
| GTCCAA | 0.313 |
| GTTGAA | 0.32 |
| GTGTAA | 0.38 |
| GACAAC | 0.26 |
| TACCTG | 0.463 |
| ACATAA | 0.45 |
| TCTGTG | 0.32 |
| CAAGCG | 0.437 |
| ATAAGC | 0.803 |
| ATGTTG | 0.379 |
| TCACTT | 0.45 |
| ATGGTA | 0.499 |
| CAGAAA | 0.321 |

| Sequence | binding signal [relative enrichment] |
| --- | --- |
| GGATTA | 0.375 |
| ACAGTA | 0.415 |
| CGTTAA | 0.239 |
| ATCGTA | 0.43 |
| CTGTTA | 0.238 |
| GATCTT | 0.497 |
| TCTGCT | 0.471 |
| TATACA | 0.505 |
| GTTCTT | 0.28 |
| ACTAGC | 0.492 |
| AAAGTA | 0.281 |
| CTCCAA | 0.387 |
| CTGTCA | 0.358 |
| AACTAG | 0.393 |
| CCTCTT | 0.521 |
| AACGTT | 0.324 |
| CAACCC | 0.391 |
| TCGCAA | 0.344 |
| ACACTG | 0.342 |
| ACCTAC | 0.532 |
| ACATTG | 0.244 |
| AGTAAA | 0.506 |
| TCCATG | 0.573 |
| ATCCAA | 0.333 |
| GTCAAA | 0.326 |

| Sequence | binding signal [relative enrichment] |
| --- | --- |
| CATTGC | 0.363 |
| TCCATA | 0.385 |
| TACAGA | 0.389 |
| AATACA | 0.419 |
| GACACA | 0.296 |
| AACTAA | 0.338 |
| CCACTA | 0.55 |
| ATGTAG | 0.407 |
| GTTCGT | 0.328 |
| TAACGA | 0.303 |
| CTTTGC | 0.372 |
| TCCTTA | 0.404 |
| AAGACT | 0.468 |
| ACAAGA | 0.322 |
| CTGTCT | 0.428 |
| GCTAAA | 0.291 |
| AATAGG | 0.428 |
| AACGTG | 0.299 |
| CTAAAA | 0.267 |
| AGAATC | 0.596 |
| CCTCAA | 0.33 |
